According to the supplement of paper PMC11417369:
± gives the standard deviation of the averaged measurements. The list shows a part of the results.

The sequences below were run on PfAP2-LT AP2 domain (GST-tagged) (assay: gcPBM binding intensity (ln(normalized median fluorescence intensity)); higher = stronger DNA binding).
In short: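 Alexa488 anti-GST antibody, scanned at 488 nm, detected GST-tagged P. falciparum DNA-binding domains that had been expressed in E. coli and incubated for 1 h on an Agilent 4 × 180k array. The array carried primer-extended double-stranded 36-bp intergenic genomic probes and negative controls. Binding intensity is the highest Masliner-normalised natural-log median intensity across replicate spots of either orientation of each probe.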

Row | Sequence | gcPBM binding intensity (ln)
1 | GAATACACCACGCACACACACTTGAGAAAAAATAAA [CACACA_site7747] | 9.66 ± 0.47
2 | ATTTTTTTCCTAATGGTGCGAATAAATATCCATACC | 8.79 ± 0.47
3 | TTAACAGTAAAACACAGTACATATATACTTAAAACA [XGTACX_site1930] | 8.88 ± 0.46
4 | AAAGCTTACATATACACACATACATAAATTCATAAA [CACACA_site2469] | 9.09 ± 0.42
5 | TTTTTTTATTATACTAGTACATATATATACAGCACA [XGTACX_site3464] | 8.76 ± 0.45
6 | AAAAAAAAAAAAGGAACACACAAGTAACAATAAATT [CACACA_site2481] | 9.09 ± 0.55
7 | ATACTAAAGAAACACACACACATATATATATAGAAT [CACACA_site100] | 9.94 ± 0.28
8 | TTTACACCCTAAAAATGTACAAGAAAGATTATATTA [XGTACX_site1102] | 8.5 ± 0.47
9 | GAGAAATGGGGACACACACACATATTATAGATATAT [CACACA_site6829] | 9.76 ± 0.38
10 | TTGTTTGATATCTTTGTCACGAAAAAAATATATATA [GTGCAC_negctrl_site54] | 8.25 ± 0.41
11 | TAAGGATAAAATAAATGTACATATGTAAAATTATTA [XGTACX_site4170] | 8.99 ± 0.5
12 | TAATCTCATAAAACCGCACACACATAAAATTTGCAT [CACACA_site3890] | 9.4 ± 0.36
13 | TTTTTAATAATCTCTCAAAATGTTCTTATATTTTAC [CACACA_negctrl_site1691] | 8.43 ± 0.52
14 | ATAATTTTGATTATCACACATATATATATATATATG [CACACA_site5882] | 8.99 ± 0.42
15 | ATATATTTCCTGAGGAGTACTATGAAAGACAAAAAA [XGTACX_site5628] | 8.66 ± 0.43
16 | TAAGAAAAAAGTAAATGTACAGAGAAAATTATCTAT [XGTACX_site7374] | 8.76 ± 0.54
17 | ATTTATTACAAATGAATGCACTATATCTTAATTTTG | 8.57 ± 0.53
18 | ACATATATATAAAGGTGTACACATATATATATATAT [XGTACX_site4779] | 9.87 ± 0.13
19 | GATTTTTAAAATATCACACATAAAAAAAAAAAAAAA [CACACA_site5516] | 8.32 ± 0.44
20 | AAAAAAATTCTGACTTGTACATATAAAATTTACAAA [XGTACX_site4408] | 8.23 ± 0.47
21 | TTTGTCATTTTATTATGTACTCAGCATATAGGGGGG [XGTACX_site505] | 10.3 ± 0.33
22 | TAATTTAATAATTAGACACACATGTGGAAAATAAAA [CACACA_site5401] | 9.15 ± 0.4
23 | ACATATTTATATATGTGTACATAAATATTCTTTTAA [XGTACX_site8238] | 8.69 ± 0.42

Row | Sequence | gcPBM binding intensity (ln)
24 | ATAAAAAAATCAGACACACACACGTAAACCCATACA [CACACA_site2773] | 9.925 ± 0.064
25 | ATTTATTTTTTTATCACACATTTGTGAAATGTGCAT [CACACA_site5869] | 8.96 ± 0.4
26 | ATATTAAGGTTTATATTTTAACTTATTATTTTATTC [CACACA_negctrl_site795] | 8.7 ± 0.49
27 | ATATATTCAATTCATACACACACAATTTAAGAATGA [CACACA_site9289] | 9.2 ± 0.4
28 | CATATCCTTACGAACTGTACAATATTAAGAATAAAA [XGTACX_site1651] | 8.61 ± 0.45
29 | GTAAAAAGATAATGAAGTACATTTTTTCATTTTTAT [XGTACX_site5579] | 8.54 ± 0.49
30 | AAAAAAAAAAAACACACACACACACCCATATACATA [CACACA_site2664] | 10.31 ± 0.085
31 | CTAGACTTTATTAATTGTACATATGTGTATTTTATA [XGTACX_site480] | 8.86 ± 0.33
32 | GTCTATAACTATTGCGCACACTTTAAAAAAAAAGAA [CACACA_site1003] | 8.91 ± 0.38
33 | TATATATATATATAATGTACATAATAATAATACATC [XGTACX_site5587] | 9.02 ± 0.38
34 | TAGAAGCATTGACACACACACATACATACACATACA [CACACA_site6802] | 9.92 ± 0.14
35 | TTTTCCTTTACATAATGTACACAAAAAAAAAAAAAA [XGTACX_site716] | 8.21 ± 0.35
36 | GTTACTGCATACATAACACACATATTCAAAACCCAT [CACACA_site5856] | 9.16 ± 0.33
37 | AATACAGACAGACACACACACAAAATAAAATACAAA [CACACA_site245] | 9.95 ± 0.38
38 | TCTTTTTTTTGAATTTGTACATAAGACAATAAAAAA [XGTACX_site4682] | 8 ± 0.4
39 | CATCATAGAGTGGAGTGTACAAATATGTCAACATAT [XGTACX_site2264] | 9.1 ± 0.48
40 | TATAAAAATGTGTATGTACACACTTTATTTTTAATA [CACACA_site2532] | 9.18 ± 0.28
41 | TGTCCAATTTTTTATCGTACATAATATATAAATAAA [XGTACX_site1705] | 8.45 ± 0.39
42 | AAATATAAAAATAGCACACATATATACATATATATA [CACACA_site56] | 8.92 ± 0.4
43 | AGTATTTCCATATGTACATGCAAAAGGAAAGATATA [TGCATGCA_site850] | 8.73 ± 0.42
44 | TATTTTTCCCTATGCACACACACCGTATATATAATA [CACACA_site4758] | 9.55 ± 0.29
45 | AGAAACGTAAGTTATACACACATGTCAAAAGAAAAA [CACACA_site312] | 9.17 ± 0.49
